# Measurements reported in PubChem BioAssay (NCI).
#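 96-well plates; 48 h exposure; 5 concentrations. Endpoints by linear interpolation between flanking doses. Not reached: highest tested concentration assigned. TGI is the concentration that stops growth completely.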 For part of its entries the source gives two or more results. This list holds those alone. An entry can have further records. Values that stand side by side are repeats (runs, samples, wells, individuals or studies). What stands in brackets tells the records apart. The letters are not those of the source and start again with each entry.
# Test system: MDA-MB-468 breast
# Experiment: NCI-60 cell line screen, 48 h
structure (smiles),measurement,value
NC1(c2ccc(-c3nc4ccn5c(=O)[nH]nc5c4cc3-c3ccccc3)cc2)CCC1,TGI,"179 nM [sample A, mean of 3 tests] and 1.87 µM [sample B, mean of 2 tests] and 1.96 µM [sample C, mean of 2 tests]"
